According to the supplement of paper PMC8728848:
This is one part of the list.

What was measured:
Test in all cases: glycan array binding signal (z-score within array); higher = stronger binding
Conditions in all cases: glycan notation: IUPAC condensed, linker removed
[1] = target: Neu5Ac(a2-3)Gal(b1-4)GlcNAc(b1-6)[Gal(b1-3)]GalNAc
How it was run: (§1)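 The Consortium for Functional Glycomics database supplied 3228 glycan arrays, of which those lacking an available protein sequence were dropped. The binding signal, a within-array Z-score, was averaged across arrays of the same protein sequence and across linkers. Negative scores can be read as non-binding.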

[2] = target: Neu5Ac(a2-3)Gal(b1-4)GlcNAc(b1-6)[Neu5Ac(a2-3)Gal(b1-3)]GalNAc
How it was run: as §1

[3] = target: Neu5Ac(a2-3)Gal(b1-4)GlcNAc6S
How it was run: as §1

[4] = target: Neu5Ac(a2-3)Gal(b1-4)[Fuc(a1-3)]GlcNAc
How it was run: as §1

[5] = target: Neu5Ac(a2-3)Gal(b1-4)[Fuc(a1-3)]GlcNAc(b1-2)Man
How it was run: as §1

[6] = target: Neu5Ac(a2-3)Gal(b1-4)[Fuc(a1-3)]GlcNAc(b1-3)Gal
How it was run: as §1

[7] = target: Neu5Ac(a2-3)Gal(b1-4)[Fuc(a1-3)]GlcNAc(b1-3)Gal(b1-4)GlcNAc
How it was run: as §1

[8] = target: Neu5Ac(a2-3)Gal(b1-4)[Fuc(a1-3)]GlcNAc(b1-3)Gal(b1-4)[Fuc(a1-3)]GlcNAc(b1-3)Gal(b1-4)[Fuc(a1-3)]GlcNAc
How it was run: as §1

[9] = target: Neu5Ac(a2-3)Gal(b1-4)[Fuc(a1-3)]GlcNAc(b1-3)GalNAc
How it was run: as §1

[10] = target: Neu5Ac(a2-3)Gal(b1-4)[Fuc(a1-3)]GlcNAc(b1-6)[Gal(b1-3)]GalNAc
How it was run: as §1

[11] = target: Neu5Ac(a2-3)Gal(b1-4)[Fuc(a1-3)]GlcNAc(b1-6)[Neu5Ac(a2-3)Gal(b1-3)]GalNAc
How it was run: as §1

[12] = target: Neu5Ac(a2-3)Gal(b1-4)[Fuc(a1-3)]GlcNAc6S
How it was run: as §1

[13] = target: Neu5Ac(a2-3)Gal6S(b1-4)GlcNAc
How it was run: as §1

[14] = target: Neu5Ac(a2-3)Gal6S(b1-4)[Fuc(a1-3)]GlcNAc
How it was run: as §1

Neu5Ac(a2-3)GalNAc = target: Neu5Ac(a2-3)GalNAc
How it was run: as §1

[15] = target: Neu5Ac(a2-3)GalNAc(b1-4)GlcNAc
How it was run: as §1

[16] = target: Neu5Ac(a2-3)[GalNAc(b1-4)]Gal(b1-4)Glc
How it was run: as §1

[17] = target: Neu5Ac(a2-3)[GalNAc(b1-4)]Gal(b1-4)GlcNAc
How it was run: as §1

[18] = target: Neu5Ac(a2-3)[GalNAc(b1-4)]Gal(b1-4)GlcNAc(b1-3)GalNAc
How it was run: as §1

[19] = target: Neu5Ac(a2-3)[Neu5Ac(a2-6)]GalNAc
How it was run: as §1

Neu5Ac(a2-6)Gal = target: Neu5Ac(a2-6)Gal
How it was run: as §1

[20] = target: Neu5Ac(a2-6)Gal(b1-3)GlcNAc(b1-3)[Gal(b1-4)GlcNAc(b1-6)]Gal(b1-4)Glc
How it was run: as §1

Neu5Ac(a2-6)Gal(b1-4)Glc = target: Neu5Ac(a2-6)Gal(b1-4)Glc
How it was run: as §1

[21] = target: Neu5Ac(a2-6)Gal(b1-4)GlcNAc
How it was run: as §1

[22] = target: Neu5Ac(a2-6)Gal(b1-4)GlcNAc(b1-2)Man
How it was run: as §1

[23] = target: Neu5Ac(a2-6)Gal(b1-4)GlcNAc(b1-2)Man(a1-3)Man(b1-4)GlcNAc(b1-4)GlcNAc
How it was run: as §1

[24] = target: Neu5Ac(a2-6)Gal(b1-4)GlcNAc(b1-2)Man(a1-3)[Gal(b1-4)GlcNAc(b1-2)Man(a1-6)]Man(b1-4)GlcNAc(b1-4)GlcNAc
How it was run: as §1

[25] = target: Neu5Ac(a2-6)Gal(b1-4)GlcNAc(b1-2)Man(a1-3)[GlcNAc(b1-2)Man(a1-6)]Man(b1-4)GlcNAc(b1-4)GlcNAc
How it was run: as §1

[26] = target: Neu5Ac(a2-6)Gal(b1-4)GlcNAc(b1-2)Man(a1-3)[GlcNAc(b1-4)][Neu5Ac(a2-6)Gal(b1-4)GlcNAc(b1-2)Man(a1-6)]Man(b1-4)GlcNAc(b1-4)GlcNAc
How it was run: as §1

[27] = target: Neu5Ac(a2-6)Gal(b1-4)GlcNAc(b1-2)Man(a1-3)[Man(a1-6)]Man(b1-4)GlcNAc(b1-4)GlcNAc
How it was run: as §1

B1: Blon2468mut (Bifidobacterium longum) (protein)
chain: MTFIKQMMPRYVASMTAGIVAAAMAATCAFAPVANADAVSPTQETIQSTGRHFMVYYRAWRDVTMKGVNTDLPDDNWISMYDIPYGVDVVNIFSYVPSGQEEQAQPFYDKLKSDYAPYLHSRGIKLVRGIDYTGVAVNGFRTFMKEQNKTESEATEADYDAYAKQVIDKYMISVGLDGLDIDMQAHPNDADVKISDNVIRALSKHIGPKSAKPDTTMFLYDTNGSYLNPFKNVAECFDYVAYQQYGSSSDRTARAAADYQPYIGNEFVPGLTFPEEGDMNNRWYDATEPYEESHFYQVASYVREHNLGGMFVYALDRDGRNYDEDLRRIVPSNLLWTKTAIAESEGMALDTAKTAANHYLDRMSLRQVIDDNAASADKARDMVGKAANLYETNKAVLGGDYGEGFSNTYDPTLEAGLLGIDISVLQQQIDKSSEIIGADTAESDAKTALRMARDAAIDGLTGKIYTADQVSAWSQALKAALDATVPVPTPDSTDQNGNRDKVTNHKVQGQPKQLSATGISTDIIVAVGVTLAIAGVALSLSRKLS
glycan array binding signal (z-score) [1]: -0.074 | glycan array binding signal (z-score) [2]: -0.032 | glycan array binding signal (z-score) [3]: -0.041 | glycan array binding signal (z-score) [4]: -0.096 | glycan array binding signal (z-score) [5]: -0.048 | glycan array binding signal (z-score) [6]: -0.081 | glycan array binding signal (z-score) [7]: -0.02 | glycan array binding signal (z-score) [8]: -0.068 | glycan array binding signal (z-score) [9]: -0.04 | glycan array binding signal (z-score) [10]: -0.067 | glycan array binding signal (z-score) [11]: -0.064 | glycan array binding signal (z-score) [12]: -0.064 | glycan array binding signal (z-score) [13]: -0.051 | glycan array binding signal (z-score) [14]: -0.07 | glycan array binding signal (z-score) (Neu5Ac(a2-3)GalNAc): -0.052 | glycan array binding signal (z-score) [15]: -0.035 | glycan array binding signal (z-score) [16]: -0.066 | glycan array binding signal (z-score) [17]: -0.075 | glycan array binding signal (z-score) [18]: -0.069 | glycan array binding signal (z-score) [19]: -0.059 | glycan array binding signal (z-score) (Neu5Ac(a2-6)Gal): -0.068 | glycan array binding signal (z-score) [20]: -0.056 | glycan array binding signal (z-score) (Neu5Ac(a2-6)Gal(b1-4)Glc): -0.055 | glycan array binding signal (z-score) [21]: -0.072 | glycan array binding signal (z-score) [22]: -0.069 | glycan array binding signal (z-score) [23]: -0.082 | glycan array binding signal (z-score) [24]: -0.077 | glycan array binding signal (z-score) [25]: -0.092 | glycan array binding signal (z-score) [26]: -0.072 | glycan array binding signal (z-score) [27]: -0.068
